From US11365205B2 (Aurigene Discovery Technologies Limited, priority 2018, dated 2022) come the findings set out here.

What is called pIC50 is the negative decadic logarithm of the IC50, by convention in mol/L.

pIC50: −log10 of the molar value.

For the experiment, the target named is PRMT5/MEP50 Complex (Homo sapiens (Human), UniProt O14744). Kind of experiment: PRMT5 inhibition based on TR-FRET assay. The experiment is classed as biochemical. As to conditions: 32 nM PRMT5:MEP50, 50 nM Histone-H4 peptide, 1 μM SAM. The source says: PRMT5 Inhibition Based on TR-FRET Assay:
Protein arginine methyltransferase 5 (PRMT5) is a type II arginine methyltransferase that catalyze mono- and symmetric demethylation on arginine residues of histone or non-histone proteins in presence of S-adenosylmethionine (AdoMet or SAM) a cofactor responsible for donating the methyl group. PRMT5 is reported to be overexpressed in several human cancers. To identify compounds that inhibit the PRMT5 and decrease its activity, a TR-FRET based assay has been established. Time-resolved fluorescence resonance energy transfer (TR-FRET) HTS assays are homogeneous proximity assays where the interaction of two dye-labeled binding partners is detected by the energy transfer between a donor and an acceptor dye and the subsequent light emission by the acceptor dye. PRMT5 catalyzes Histone H4 peptide which is biotin tagged to the Lysine amino acid at carboxyl end, in presence of S-adenosyl-1-methionine (SAM) to methylate the peptide. The antibody specific to mono methylated H4 peptide (H4R3) with Ig conjugate binds to the methylated peptide, indirectly binding to the Europium lanthanide. […]
The compound dilutions were prepared as 7.5% DMSO stock solutions in assay buffer. […] The plates were then read on Victor-3 with Excitation at 340 nm and Emissions collected at 615 and 665 nm in TR-FRET protocol. […]
A general note: TR-FRET usually uses a lanthanide donor and a delayed reading to cut background.

UniProt O14744, sequence (O14744 whole entry): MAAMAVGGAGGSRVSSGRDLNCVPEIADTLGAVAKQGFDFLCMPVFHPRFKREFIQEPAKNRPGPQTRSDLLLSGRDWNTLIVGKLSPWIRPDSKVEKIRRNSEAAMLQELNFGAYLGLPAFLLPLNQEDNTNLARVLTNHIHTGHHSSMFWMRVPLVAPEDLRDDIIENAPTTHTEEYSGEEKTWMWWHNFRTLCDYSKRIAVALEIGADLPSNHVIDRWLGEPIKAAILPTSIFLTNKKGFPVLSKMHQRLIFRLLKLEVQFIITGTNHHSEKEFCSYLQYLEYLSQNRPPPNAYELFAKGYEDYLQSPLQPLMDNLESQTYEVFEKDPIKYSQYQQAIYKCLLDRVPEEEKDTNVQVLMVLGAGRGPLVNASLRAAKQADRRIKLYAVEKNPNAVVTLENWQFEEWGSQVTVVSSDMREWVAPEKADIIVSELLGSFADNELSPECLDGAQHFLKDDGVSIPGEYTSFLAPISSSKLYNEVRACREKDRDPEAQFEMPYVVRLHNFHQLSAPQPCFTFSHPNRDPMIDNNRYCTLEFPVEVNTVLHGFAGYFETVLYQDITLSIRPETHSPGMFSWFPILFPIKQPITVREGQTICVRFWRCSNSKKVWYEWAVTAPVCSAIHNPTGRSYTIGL
UniProt O14744, sequence (Q9BQA1 whole entry partner): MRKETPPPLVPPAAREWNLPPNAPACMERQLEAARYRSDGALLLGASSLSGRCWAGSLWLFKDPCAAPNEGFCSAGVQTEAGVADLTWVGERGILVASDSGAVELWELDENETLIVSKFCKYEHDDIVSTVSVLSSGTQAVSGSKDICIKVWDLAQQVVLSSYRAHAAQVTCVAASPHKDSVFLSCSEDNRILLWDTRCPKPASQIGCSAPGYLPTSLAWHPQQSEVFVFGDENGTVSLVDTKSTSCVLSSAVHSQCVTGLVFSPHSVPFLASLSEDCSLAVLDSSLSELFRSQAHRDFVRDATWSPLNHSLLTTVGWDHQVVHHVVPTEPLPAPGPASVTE

For `Cn1cnc2ccc(CN3CCN(CC(O)CN4CCc5ccccc5C4)C3=O)cc21` (single isomer, unassigned) [Example 1a, 1-(3-(3,4-Dihydroisoquinolin-2(1H)-yl)-2-hydroxypropyl)-3-((1-methyl-1H-benzo[d]imidazol-6-yl)methyl)imidazolidin-2-one], the pIC50 is 5.77.
With `Cn1cnc2ccc(CN3CCN(CC(O)CN4CCc5ccccc5C4)C3=O)cc21` (single isomer, unassigned) [Example 1b, 1-(3-(3,4-Dihydroisoquinolin-2(1H)-yl)-2-hydroxypropyl)-3-((1-methyl-1H-benzo[d]imidazol-6-yl)methyl)imidazolidin-2-one], the negative-log IC50 (pIC50) was 5.64.
